# Laboratory results reported in article PMC4242493.
# This is one part of the list. The list includes weakly bound sequences.
# Target: MaxL homodimer (UniProt P61244)
# Assay: universal protein-binding microarray (PBM)
# Settings: PBS-based mixture, 10 nM His-tagged protein dimer, 2% milk, 200 ng/uL BSA, 50 ng/uL salmon testes DNA, 0.02% TX-100; detection with Alexa 488 anti-His …; high values mean tight binding; most listed sequences are background and not binding sites; double strand, one strand shown
# UniProt P61244, sequence (P61244 whole entry): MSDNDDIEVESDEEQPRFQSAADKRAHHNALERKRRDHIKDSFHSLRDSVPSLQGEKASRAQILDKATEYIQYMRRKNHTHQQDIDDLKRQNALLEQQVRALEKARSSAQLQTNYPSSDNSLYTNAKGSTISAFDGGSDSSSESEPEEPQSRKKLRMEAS
row,Sequence,binding signal (normalized occupancy)
1,GATTGCGA,0.0719
2,GCGTTGCC,0.0755
3,TTCGCCAA,0.0733
4,CTAAAATC,0.0735
5,AATAATGT,0.0873
6,ACTATAAC,0.0847
7,CATAGCAC,0.0874
8,CGGGGGAG,0.0782
9,CGAAATTA,0.0707
10,CCGACCTC,0.0712
11,ATAACTTG,0.0789
12,AAATCCAT,0.0817
13,GGTCGCAA,0.0758
14,AAGAATAT,0.0801
15,CCGGTCTC,0.0693
16,CGTAACTC,0.0757
17,AGAATACG,0.0787
18,CCTGCAAA,0.0722
19,CGAAGTGC,0.0732
20,ATTTCGCA,0.07
21,ATCTTACG,0.0764
22,CTATCAAG,0.0742

row,Sequence,binding signal (normalized occupancy)
1,CATTCGAG,0.0783
2,TATTGCCA,0.082
3,CAAAAAAG,0.0719
4,CAGTATGG,0.0813
5,CATGTCAG,0.0859
6,CTGGGACC,0.0772
7,CGATGACG,0.0708
8,ACTCCCTC,0.0805
9,CCGTTCAG,0.0689
10,CCGCCAAA,0.0717
11,AACTGTAA,0.0741
12,AAAGTTAC,0.0744
13,GACATGCC,0.0968
14,CAATCGTC,0.0781
15,ACGATGAA,0.0787
16,AAGTTTAC,0.0754
17,ACGAATTC,0.0726
18,ACGATGAT,0.0814
19,AGATTCCG,0.0709
20,AGGCAAGA,0.0755
21,ATCAAGAT,0.082
22,CAGGGTAG,0.0718

row,Sequence,binding signal (normalized occupancy)
1,GCCCACCC,0.087
2,ACGTTCAT,0.0858
3,AATTTAGA,0.0747
4,ACTTATGA,0.0761
5,CTCCAATC,0.074
6,ACGTATAG,0.0806
7,ATTAATCG,0.075
8,ATGTCACA,0.0852
9,GCTCTCCC,0.0755
10,AAAGGCAT,0.0752
11,GGACCACA,0.0816
12,AGACAAAT,0.0757
13,GGCACAAC,0.0705
14,CAAGCAGC,0.0732
15,AAGCCTGG,0.0675
16,ACATTCCC,0.0766
17,ACTTGGGG,0.0791
18,GGGCAGGA,0.0733
19,CCCCGGGA,0.0693
20,AAACAGCT,0.0678
21,ATGAAAAA,0.0781
22,AACCCGGG,0.0704

row,Sequence,binding signal (normalized occupancy)
1,CCCGTAGG,0.0672
2,ACGCGCGA,0.0786
3,ACGAGGCG,0.079
4,CGGCGTCC,0.0669
5,GAGGTGAA,0.0712
6,CCCTGTCA,0.0753
7,TGGATTAA,0.0902
8,AGAGTTTC,0.0684
9,CACGTAAC,0.0832
10,GGTAAAAC,0.0724
11,ACGTCCCG,0.076
12,GTTTTCAA,0.0755
13,ATTTGCAA,0.0701
14,AAGAGACC,0.0659
15,CACATGTA,0.147
16,GCGTTGGA,0.0812
17,AGCCTTTA,0.0711
18,CTATGGGA,0.0764
19,ATGGGGAG,0.0855
20,GATTCGTA,0.075
